# Experimental data: the supplement of paper PMC3334620
# Over roughly 33,000 sequences, “E-score (-0.5 to 0.5)” has its median near -0.016; the highest 2% begin near 0.32. The list shows a part of the results.
# Target: T1, Stp1 (UniProt B3LFK1)
# T1 sequence: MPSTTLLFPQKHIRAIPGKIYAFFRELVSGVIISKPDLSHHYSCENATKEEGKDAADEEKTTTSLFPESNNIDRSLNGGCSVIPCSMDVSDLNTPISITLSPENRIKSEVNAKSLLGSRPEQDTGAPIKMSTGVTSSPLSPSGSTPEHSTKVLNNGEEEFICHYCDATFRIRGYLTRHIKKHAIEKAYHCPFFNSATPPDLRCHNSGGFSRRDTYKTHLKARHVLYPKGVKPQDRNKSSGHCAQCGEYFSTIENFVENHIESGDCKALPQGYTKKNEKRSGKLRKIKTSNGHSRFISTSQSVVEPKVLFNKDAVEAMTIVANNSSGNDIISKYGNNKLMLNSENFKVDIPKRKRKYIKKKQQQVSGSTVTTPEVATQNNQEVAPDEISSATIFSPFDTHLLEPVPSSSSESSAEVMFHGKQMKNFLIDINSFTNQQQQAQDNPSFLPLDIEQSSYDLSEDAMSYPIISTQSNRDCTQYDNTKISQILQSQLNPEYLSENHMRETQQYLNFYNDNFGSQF
# Assay: PBM E-score (8-mer binding enrichment) (E-score (-0.5 to 0.5)); higher = stronger / more preferred TF binding; most listed sequences are background and not binding sites
# Conditions: protein concentration: 200 nM; construct: GST-full length
# Summary of the method: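 For each ungapped eight-base word taken together with its reverse complement, the Universal PBM Analysis Suite assigned an E-score. Binding data came from GST-tagged yeast transcription factors, applied at about 100-200 nM, on universal all-10-mer Agilent arrays made double-stranded by primer extension. Fluorescent anti-GST marked bound protein, and scans were normalised with masliner.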
row,Sequence,PBM E-score
1,GGGTGGAA,-0.31
2,GGTCGTAC,-0.229
3,GAAGACTC,-0.121
4,TATTAAAA,0.279
5,CATTAGGA,-0.00507
6,ACTGTTAA,0.154
7,CTCTAGAG,-0.0135
8,ACAGCTCT,-0.306
9,AACAGTAA,0.00958
10,AATCTGCG,0.215
11,ACTAGAGT,-0.167
12,AAAAAGTA,0.135
13,CCCTTTAC,0.0337
14,ATCGAGGC,-0.0646
15,AGGAAAAG,0.214
16,CCCTCTGA,-0.105
17,GTCTGTCA,-0.00712
18,GTTCAGCA,-0.137
19,CATCGTCA,0.0788
20,GTGGGCCA,0.0412
21,CAACGATG,-0.0103
22,GATGACAC,-0.0173
23,ACGCCCGC,-0.0205
24,AACTTTCG,-0.0408
25,AATGGATA,-0.015

row,Sequence,PBM E-score
1,AGATGTAT,0.00406
2,ACAGAATC,-0.135
3,CACCTGCC,0.055
4,AATCGCGG,-0.0359
5,GGTCCAAC,-0.156
6,GATGTACA,0.0467
7,GACTGAAC,-0.24
8,CGTCAGGA,0.0248
9,AAAGGAGT,-0.0421
10,ACCTGGTG,-0.147
11,ACACGTGA,0.0836
12,CTAGGTAA,-0.139
13,TAACTCGA,0.17
14,AACTTGTC,-0.0164
15,CAGTAGCG,-0.129
16,ACCGCTAG,-0.186
17,AAACGAGG,0.0897
18,ACTGCGAC,-0.101
19,TATATTAA,0.278
20,AGTGCTCA,-0.198
21,ACTTTAAA,0.155
22,AGACGTGG,0.0144
23,AAAGCGGC,0.366
24,CGAAGTTA,-0.0277
25,CTCTCTTA,-0.0244

row,Sequence,PBM E-score
1,CCTCACCG,0.0522
2,CCCCCGAC,-0.275
3,CGAATAAC,-0.0575
4,ACCGAGGT,-0.131
5,GAGCCAGC,-0.17
6,GTGTTCAA,0.0543
7,AATCCTGT,-0.037
8,AAGTCCTC,-0.156
9,CAAGCTCA,-0.182
10,AGCGGTGG,-0.205
11,CGATTATA,0.169
12,CGTTATTC,0.0208
13,GCTGAGAA,-0.0948
14,AGCATGTA,-0.192
15,CTTATGAC,-0.046
16,GAATTCGA,0.027
17,TATGAGCA,0.045
18,ATAGAGAG,-0.181
19,TGTTGCAA,0.248
20,ACTTTTCC,0.0971
21,GGTATACC,-0.0752
22,CACCGAGC,0.0864
23,CCATGCAC,-0.107
24,GGGGACCA,-0.23
25,AGTGTTCC,0.0545

row,Sequence,PBM E-score
1,CCCGCGAC,-0.0506
2,AGTTAGCG,0.0166
3,ATATAAAT,0.235
4,CAGTGACA,-0.155
5,AACCCAAA,0.12
6,ACTAGCTG,-0.217
7,CAAGCCCC,-0.282
8,GAGCGGCA,0.44
9,GGACTCAA,-0.152
10,ATAACGAG,0.0512
11,GGAACGCA,-0.0347
12,CGTTACAA,0.0773
13,GTAACAGA,0.174
14,CACTTAGA,0.0997
15,AACTGTCC,-0.187
16,CACGTGGA,0.0843
17,CGCCCTAG,0.147
18,ATGACGCG,0.0508
19,CTCACTTA,-0.0129
20,ACGAAAGA,0.0615
21,TGATTGAA,0.155
22,CTCGTAAA,0.0114
23,CATGTTTC,0.249
24,ATTTATCA,0.175
25,AGGCCCGA,-0.286

row,Sequence,PBM E-score
1,ATGCGTGG,-0.184
2,ACTAGATC,-0.0829
3,GACCTCGA,-0.146
4,ACCTAACG,0.0487
5,ATCCGTGA,0.00902
6,ATCTAAGG,-0.143
7,CAAGGATC,0.0757
8,CCCGGCAG,-0.227
9,AGACCGTA,-0.189
10,TTGAACAA,0.0506
11,AAAGTGTA,-0.154
12,TCGCTTAA,0.143
13,TATCCTGA,0.0787
14,ACCGCGCG,0.209
15,ATAAGACG,-0.0885
16,ACATCTCA,-0.0212
17,ATTACCAG,0.122
18,ACGGGTCC,-0.0534
19,TTCTAGAA,0.0654
20,ACAACTGG,-0.127
21,CAGCAGGG,-0.186
22,CCCTCCAC,-0.16
23,CGTCACAC,-0.104
24,GATATCCA,0.143
25,ATCAAAAA,0.0976

row,Sequence,PBM E-score
1,CGTGACTC,-0.197
2,TACAAAAA,0.0816
3,AACATTAG,-0.14
4,GACGTTGA,-0.0706
5,CGGGCCGC,0.236
6,AGCAGGCG,-0.0422
7,GCACAGGC,0.057
8,CAGACGGC,0.42
9,TGCCGCAA,0.333
10,ACCAAGTC,-0.125
11,CTCACCAG,-0.213
12,CGGTGCAA,-0.0137
13,ACGCATGA,-0.168
14,CCCCGACA,-0.12
15,AATTCCGT,0.141
16,ACGTACCT,-0.226
17,CCTCACGC,0.253
18,CAATTCAC,0.142
19,TGAGCACA,-0.0425
20,CTCAGCTA,-0.117
21,AGAAACTA,0.0167
22,AGGAACAT,-0.0768
23,TATGAGAA,0.00837
24,CTAACTGA,0.00597
25,CGGGCTAC,-0.216

row,Sequence,PBM E-score
1,AGCTTTTA,0.0944
2,CGTCCACG,0.112
3,ATAATTCG,0.137
4,CAAGTAGC,-0.103
5,GATCAATA,0.0923
6,AAGAAGAG,0.00115
7,AGTCCACC,-0.144
8,AGTGGGCA,0.0851
9,CTCTGGGA,-0.0974
10,CGAGATAC,0.149
11,GAAATACA,-0.00264
12,GTGGTCAA,-0.128
13,ACGCGAAC,-0.138
14,CGTGTCTA,0.0481
15,GCGTGGAC,-0.126
16,ACCATGGA,-0.131
17,TGTACTAA,0.193
18,GCGACGCA,-0.0317
19,CGATGCGA,0.0342
20,GAAACAAA,0.221
21,CTAGCTAG,-0.00873
22,AGGTGGAG,-0.182
23,AACCAGGT,-0.227
24,ACTTTCGC,-0.0606
25,AGGGCCGC,0.168

row,Sequence,PBM E-score
1,AACCGCGC,0.167
2,GAAGTTCA,0.147
3,AGCTCTGA,-0.164
4,AATAGCAT,-0.021
5,AAAGAAAG,-0.0331
6,AATTCTCA,-0.0957
7,AGCGACCT,-0.259
8,GCTAGTCC,-0.187
9,AGACGACC,-0.178
10,ACGAGCGG,0.261
11,GTACGGAC,0.201
12,GAATTACC,-0.0591
13,GGCTGCCC,-0.184
14,GGCTGATA,0.105
15,AGGAGCGC,-0.11
16,ATTTCTCG,0.265
17,ATCGTGGC,0.0773
18,GGGGATTA,-0.269
19,TGCAAAAA,0.0634
20,CCGGTTGA,0.0433
21,CGAGTATC,-0.246
22,ACAGGGGG,-0.28
23,AAATGGAT,-0.0982
24,CAACCAGC,-0.322
25,ATCCCGGA,-0.309

row,Sequence,PBM E-score
1,GCGCCAGC,0.0628
2,CACAGTCA,-0.264
3,ACGTACCC,-0.015
4,CGTTTCAG,0.217
5,AGCATGAG,-0.115
6,CATTTACC,0.0269
7,TCAGCGGA,0.0468
8,CATTCATC,-0.21
9,CGAAAACG,0.207
10,GTGTGGGA,-0.0906
11,CCTTATAA,0.0183
12,CGTCAAAG,0.0585
13,AATATGTG,0.211
14,AATGATCT,-0.0535
15,GCCTTATA,0.232
16,CGGATGGA,-0.0835
17,ACAGTACC,0.0208
18,ACAACTCG,0.0262
19,ATCGAACC,-0.0352
